From the supplement of paper PMC8728848
The list shows a part of the results.

Assays:
Experiment in all cases: glycan array binding signal (z-score within array); higher = stronger binding
Conditions in all cases: glycan notation: IUPAC condensed, linker removed
[1] = molecular target: Gal3S(b1-3)[Fuc(a1-4)]GlcNAc
Method in brief: (§1)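 From the Consortium for Functional Glycomics database, 3228 arrays were curated, keeping only those whose protein sequence was available. Binding is given as a within-array Z-score averaged across arrays sharing a protein sequence and across linkers. Negative Z-scores can be read as non-binding.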

Gal3S(b1-4)Glc = molecular target: Gal3S(b1-4)Glc
Method in brief: as §1

Gal3S(b1-4)Glc6S = molecular target: Gal3S(b1-4)Glc6S
Method in brief: as §1

Gal3S(b1-4)GlcNAc = molecular target: Gal3S(b1-4)GlcNAc
Method in brief: as §1

[2] = molecular target: Gal3S(b1-4)[Fuc(a1-3)]Glc6S
Method in brief: as §1

[3] = molecular target: Gal3S(b1-4)[Fuc(a1-3)]GlcNAc
Method in brief: as §1

[4] = molecular target: Gal3S(b1-4)[Fuc(a1-3)]GlcNAc6S
Method in brief: as §1

Gal3S4S(b1-4)GlcNAc = molecular target: Gal3S4S(b1-4)GlcNAc
Method in brief: as §1

Gal3S6S(b1-4)GlcNAc = molecular target: Gal3S6S(b1-4)GlcNAc
Method in brief: as §1

Gal3S6S(b1-4)GlcNAc6S = molecular target: Gal3S6S(b1-4)GlcNAc6S
Method in brief: as §1

Gal4S(b1-4)GlcNAc = molecular target: Gal4S(b1-4)GlcNAc
Method in brief: as §1

Gal4S6S(b1-4)GlcNAc = molecular target: Gal4S6S(b1-4)GlcNAc
Method in brief: as §1

Gal6P(b1-4)GlcNAc = molecular target: Gal6P(b1-4)GlcNAc
Method in brief: as §1

Gal6S(b1-3)GlcNAc = molecular target: Gal6S(b1-3)GlcNAc
Method in brief: as §1

Gal6S(b1-3)GlcNAc6S = molecular target: Gal6S(b1-3)GlcNAc6S
Method in brief: as §1

Gal6S(b1-4)Glc = molecular target: Gal6S(b1-4)Glc
Method in brief: as §1

Gal6S(b1-4)Glc6S = molecular target: Gal6S(b1-4)Glc6S
Method in brief: as §1

Gal6S(b1-4)GlcNAc = molecular target: Gal6S(b1-4)GlcNAc
Method in brief: as §1

Gal6S(b1-4)GlcNAc6S = molecular target: Gal6S(b1-4)GlcNAc6S
Method in brief: as §1

GalNAc(a1-3)Gal = molecular target: GalNAc(a1-3)Gal
Method in brief: as §1

GalNAc(a1-3)GalNAc = molecular target: GalNAc(a1-3)GalNAc
Method in brief: as §1

[5] = molecular target: GalNAc(a1-3)GalNAc(b1-3)Gal(a1-4)Gal(b1-4)Glc
Method in brief: as §1

[6] = molecular target: GalNAc(a1-3)GalNAc(b1-3)Gal(a1-4)Gal(b1-4)GlcNAc
Method in brief: as §1

GalNAc(b1-3)Gal = molecular target: GalNAc(b1-3)Gal
Method in brief: as §1

[7] = molecular target: GalNAc(b1-3)Gal(a1-4)Gal(b1-4)GlcNAc
Method in brief: as §1

[8] = molecular target: GalNAc(b1-3)Gal(a1-4)Gal(b1-4)GlcNAc(b1-3)Gal(b1-4)Glc
Method in brief: as §1

[9] = molecular target: GalNAc(b1-3)Gal(a1-6)Gal(b1-4)Glc
Method in brief: as §1

GalNAc(b1-3)GalNAc = molecular target: GalNAc(b1-3)GalNAc
Method in brief: as §1

GalNAc(b1-3)GlcNAc = molecular target: GalNAc(b1-3)GlcNAc
Method in brief: as §1

GalNAc(b1-4)Gal(b1-4)Glc = molecular target: GalNAc(b1-4)Gal(b1-4)Glc
Method in brief: as §1

GalNAc(b1-4)GlcNAc = molecular target: GalNAc(b1-4)GlcNAc
Method in brief: as §1

[10] = molecular target: GalNAc(b1-4)GlcNAc(b1-2)Man
Method in brief: as §1

[11] = molecular target: GalNAc(b1-4)GlcNAc(b1-2)Man(a1-3)[GalNAc(b1-4)GlcNAc(b1-2)Man(a1-6)]Man(b1-4)GlcNAc(b1-4)GlcNAc
Method in brief: as §1

[12] = molecular target: GalNAc(b1-4)GlcNAc(b1-3)GalNAc(b1-4)GlcNAc
Method in brief: as §1

GalNAc(b1-4)GlcNAc6S = molecular target: GalNAc(b1-4)GlcNAc6S
Method in brief: as §1

GalNAc(b1-6)GalNAc = molecular target: GalNAc(b1-6)GalNAc
Method in brief: as §1

GalNAc3S(b1-4)GlcNAc = molecular target: GalNAc3S(b1-4)GlcNAc
Method in brief: as §1

GalNAc3S(b1-4)GlcNAc3S = molecular target: GalNAc3S(b1-4)GlcNAc3S
Method in brief: as §1

[13] = molecular target: GalNAc3S(b1-4)[Fuc(a1-3)]GlcNAc
Method in brief: as §1

GalNAc4S6S(b1-4)GlcNAc = molecular target: GalNAc4S6S(b1-4)GlcNAc
Method in brief: as §1

GalNAc6S(b1-4)GlcNAc = molecular target: GalNAc6S(b1-4)GlcNAc
Method in brief: as §1

Glc(a1-4)Glc = molecular target: Glc(a1-4)Glc
Method in brief: as §1

[14] = molecular target: Glc(a1-4)Glc(a1-4)Glc(a1-4)Glc
Method in brief: as §1

Glc(a1-6)Glc(a1-6)Glc = molecular target: Glc(a1-6)Glc(a1-6)Glc
Method in brief: as §1

[15] = molecular target: Glc(a1-6)Glc(a1-6)Glc(a1-6)Glc
Method in brief: as §1

B1: Epa9 (Candida glabrata), CAGL0A01386g (protein)
chain: MGSSHHHHHHSSGLVPRGSHMDITPFAHYPRPEGCSSPPNAVSVGLHMDLYNYPYLYVKNPRTGFTNDTDSDADGETDGDSAGGIEGRAGQCWNPEYQDPNFPRYGYKKYGSFGSSDHVNGKISWDHNEFKEGCKPIMARLPTAYNYPAKITFSNFTMVLSGYFKPKSTGLYKFEIHADDFILFNFGSKNAFECCNREESIDNFGPYVAYAMWPNEADQELEVYLFEDSYYPIRLFYNNRDYHSKFMVGFYPPNTEEITYDFDGYLYMLDDTGNECKDSIRYKTVCDD
glycan array binding signal (z-score) [1]: -0.442
glycan array binding signal (z-score) (Gal3S(b1-4)Glc): -0.458
glycan array binding signal (z-score) (Gal3S(b1-4)Glc6S): -0.471
glycan array binding signal (z-score) (Gal3S(b1-4)GlcNAc): -0.503
glycan array binding signal (z-score) [2]: -0.318
glycan array binding signal (z-score) [3]: -0.495
glycan array binding signal (z-score) [4]: -0.517
glycan array binding signal (z-score) (Gal3S4S(b1-4)GlcNAc): -0.487
glycan array binding signal (z-score) (Gal3S6S(b1-4)GlcNAc): -0.464
glycan array binding signal (z-score) (Gal3S6S(b1-4)GlcNAc6S): -0.464
glycan array binding signal (z-score) (Gal4S(b1-4)GlcNAc): -0.473
glycan array binding signal (z-score) (Gal4S6S(b1-4)GlcNAc): -0.491
glycan array binding signal (z-score) (Gal6P(b1-4)GlcNAc): -0.494
glycan array binding signal (z-score) (Gal6S(b1-3)GlcNAc): -0.361
glycan array binding signal (z-score) (Gal6S(b1-3)GlcNAc6S): -0.247
glycan array binding signal (z-score) (Gal6S(b1-4)Glc): 0.28
glycan array binding signal (z-score) (Gal6S(b1-4)Glc6S): 1.07
glycan array binding signal (z-score) (Gal6S(b1-4)GlcNAc): 0.445
glycan array binding signal (z-score) (Gal6S(b1-4)GlcNAc6S): 0.589
glycan array binding signal (z-score) (GalNAc(a1-3)Gal): -0.486
glycan array binding signal (z-score) (GalNAc(a1-3)GalNAc): -0.465
glycan array binding signal (z-score) [5]: -0.468
glycan array binding signal (z-score) [6]: -0.455
glycan array binding signal (z-score) (GalNAc(b1-3)Gal): -0.456
glycan array binding signal (z-score) [7]: -0.367
glycan array binding signal (z-score) [8]: -0.249
glycan array binding signal (z-score) [9]: -0.468
glycan array binding signal (z-score) (GalNAc(b1-3)GalNAc): -0.471
glycan array binding signal (z-score) (GalNAc(b1-3)GlcNAc): -0.486
glycan array binding signal (z-score) (GalNAc(b1-4)Gal(b1-4)Glc): -0.444
glycan array binding signal (z-score) (GalNAc(b1-4)GlcNAc): -0.449
glycan array binding signal (z-score) [10]: -0.396
glycan array binding signal (z-score) [11]: -0.408
glycan array binding signal (z-score) [12]: -0.472
glycan array binding signal (z-score) (GalNAc(b1-4)GlcNAc6S): -0.469
glycan array binding signal (z-score) (GalNAc(b1-6)GalNAc): -0.474
glycan array binding signal (z-score) (GalNAc3S(b1-4)GlcNAc): -0.457
glycan array binding signal (z-score) (GalNAc3S(b1-4)GlcNAc3S): -0.441
glycan array binding signal (z-score) [13]: -0.453
glycan array binding signal (z-score) (GalNAc4S6S(b1-4)GlcNAc): -0.45
glycan array binding signal (z-score) (GalNAc6S(b1-4)GlcNAc): -0.479
glycan array binding signal (z-score) (Glc(a1-4)Glc): -0.47
glycan array binding signal (z-score) [14]: -0.452
glycan array binding signal (z-score) (Glc(a1-6)Glc(a1-6)Glc): -0.471
glycan array binding signal (z-score) [15]: -0.458
